Publication PMC4336329 (PLoS ONE, 2015)
The whole screen tested about 310,000 compounds, of which about 14,000 (4.5%) showed an effect of 50% or more. Effects have a minus sign here. Some of the results follow.

biological target: human ether-à-go-go-related gene (hERG) potassium channel (human, UniProt Q12809); test: primary screen, population patch clamp on CHO cells stably expressing hERG
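Note: peak tail current of the secondary pulse compared with the same well before compound.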

Sequence of human ether-à-go-go-related gene (hERG) potassium channel (Q12809 whole entry, looked up): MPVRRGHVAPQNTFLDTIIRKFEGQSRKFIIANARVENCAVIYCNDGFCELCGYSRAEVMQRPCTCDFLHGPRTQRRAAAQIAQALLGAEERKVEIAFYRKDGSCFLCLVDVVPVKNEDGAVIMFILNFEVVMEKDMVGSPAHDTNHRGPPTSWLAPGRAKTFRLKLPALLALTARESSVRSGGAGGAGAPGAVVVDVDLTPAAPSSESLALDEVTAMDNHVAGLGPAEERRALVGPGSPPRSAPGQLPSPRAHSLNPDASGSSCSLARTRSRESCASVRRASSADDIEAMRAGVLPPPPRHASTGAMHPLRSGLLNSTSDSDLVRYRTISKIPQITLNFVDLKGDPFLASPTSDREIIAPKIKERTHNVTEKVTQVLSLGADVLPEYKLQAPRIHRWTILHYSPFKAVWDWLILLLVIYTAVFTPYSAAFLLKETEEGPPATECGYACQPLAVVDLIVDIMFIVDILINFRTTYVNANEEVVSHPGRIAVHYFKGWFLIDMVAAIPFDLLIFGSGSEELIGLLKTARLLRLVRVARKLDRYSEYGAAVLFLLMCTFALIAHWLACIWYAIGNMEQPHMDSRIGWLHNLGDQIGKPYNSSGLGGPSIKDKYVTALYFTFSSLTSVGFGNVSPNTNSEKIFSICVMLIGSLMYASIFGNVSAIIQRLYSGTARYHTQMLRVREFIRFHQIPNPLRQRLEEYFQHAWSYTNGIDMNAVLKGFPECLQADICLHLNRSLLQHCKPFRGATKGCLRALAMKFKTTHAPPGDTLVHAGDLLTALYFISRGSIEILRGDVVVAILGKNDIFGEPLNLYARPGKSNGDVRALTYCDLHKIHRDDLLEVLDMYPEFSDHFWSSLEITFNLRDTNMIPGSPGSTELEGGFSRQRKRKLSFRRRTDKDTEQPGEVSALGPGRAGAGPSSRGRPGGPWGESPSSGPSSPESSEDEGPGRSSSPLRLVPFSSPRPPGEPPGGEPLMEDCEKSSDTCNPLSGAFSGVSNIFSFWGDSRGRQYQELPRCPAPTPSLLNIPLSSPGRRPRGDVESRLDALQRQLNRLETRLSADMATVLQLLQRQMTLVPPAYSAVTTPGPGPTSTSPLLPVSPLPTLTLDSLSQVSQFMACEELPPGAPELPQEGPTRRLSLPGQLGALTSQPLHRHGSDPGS

Structure (SMILES)	hERG current change (%, negative = inhibition) at 10uM [%]
COc1ccc(S(=O)(=O)NCc2ccc(C(=O)O)cc2)cc1	7.54
Cc1cc(OCC(=O)NCCCn2ccnc2)c2c(C)cc(=O)oc2c1	-22.5
CCc1ccc(/C=C2/SC(=S)N(CCC(=O)Nc3cccc(C(=O)O)c3)C2=O)cc1	1.96
Cc1cccc(Oc2coc3cc(OC(=O)c4cc5ccccc5oc4=O)ccc3c2=O)c1	-7.1
CC(C)(C)c1cc(C(C)(C)C)n(-c2ccccc2)n1	22.1
CN1CCc2c(sc3nc(SCC(=O)N4CCCCC4)n(-c4ccccc4)c(=O)c23)C1	14.3
Cc1cc2oc(=O)c3c(c2cc1OCc1nn[nH]n1)CCCC3	-0.33
Nc1nc(Nc2cccc(F)c2)nc(NCc2ccco2)c1[N+](=O)[O-]	17.9
CC(=O)c1cccc(OCc2cc(C(=O)N3C[C@@H](C)O[C@@H](C)C3)no2)c1	7.8
CC(C)(C#CCN1CCCC1)OCCC#N	17.8
COC(=O)c1ccc(COc2ccccc2/C=C(\C#N)C(=O)Nc2ccccc2C)cc1	2.16
O=S(Cc1ccc(Cl)cc1)CC(O)(c1ccccc1)c1ccccc1 (stereo not drawn)	-12.3
CCCCN(C(=O)CSc1nnc(-c2ccc(OC)cc2)n1C(C)C)c1c(N)n(Cc2ccccc2)c(=O)[nH]c1=O	11.9
CCCCc1ccc(NC(=S)NCc2ccc(OC)cc2)cc1	-0.443
O=C(O)CCCC(=O)N1CCCC1	21
Nc1cccc(-c2ccc(CO)o2)c1	15.7
N#CC1CCN(c2ncccc2[N+](=O)[O-])CC1	21
O=[N+]([O-])c1ccc(S(=O)(=O)NNC(=S)NCCc2ccccc2)cc1	0.393
O=C(c1cccc(Cl)c1)N(Cc1cccs1)C1CCS(=O)(=O)C1 (stereo not drawn)	-14.1
COc1cc(OC)cc(C(=O)Nc2ccc3nc4n(c(=O)c3c2)CCCCC4)c1	-48.7
COc1ccc(NC(=O)CSc2nc(C)c3c(c2C#N)CCCC3)cc1	-1.14
Oc1ccccc1C1=NOC(O)(C(F)F)C1 (stereo not drawn)	-0.864
Cc1nn(C)cc1CNC(=O)COc1ccc(Cl)cc1Cl	0.705

Structure (SMILES)	hERG current change (%, negative = inhibition) at 10uM [%]
Cc1ccn2c(=O)c(C(=O)NCCN3CCOCC3)c(O)nc2c1	11.9
CC(=O)Nc1ccc(S(=O)(=O)n2cnc(C)c2)cc1	-35
C=C(C)CN(CC)C(=O)CC1C(=O)NCCN1Cc1c(F)cccc1Cl (stereo not drawn)	14.8
C=CCN(c1ccccc1)S(=O)(=O)c1ccc2c(c1)NC(=O)C(C)C(=O)N2 (stereo not drawn)	-4.47
Cc1cc(C)c(C)c(N=Nc2nc3ccccc3n2C)c1C	-2.93
O=P1(NC2CCCC2)COc2ccccc2OC1	4.76
Cc1ccc(CN2C(=O)CCC2C(=O)NCC2CCCO2)cc1 (stereo not drawn)	1.51
CCCNNC(=O)C(O)(c1cccc(C)c1)c1cccc(C)c1	-2.43
CC(=O)Oc1ccc(-c2cccc(C(=O)OCC(=O)Nc3ccccc3Oc3ccccc3)c2)cc1	4.64
Cc1ccc(N2C(=O)C3CCCN3C2=S)c(C)c1 (stereo not drawn)	2.83
CN1C[C@H](CNC(=O)OCc2ccccc2)C[C@@H]2c3cccc4c3c(cn4C)C[C@H]21	-61.9
C/C(=N\NC(=O)c1ccncc1)c1cccc(NC(=O)c2ccc(Cl)s2)c1	-47.7
S=C(NN=C1CCN(Cc2ccccc2)CC1)NC1CCCCC1	-38.5
O=C1CN(S(=O)(=O)c2ccc(F)cc2)c2ccccc2N1	-3.57
O=C(Nc1ncccn1)c1cccc(F)c1	2.8
COC(=O)Cc1c(C)c2ccc(OCC(=O)N(C)C3CCS(=O)(=O)C3)cc2oc1=O (stereo not drawn)	21.2
CCOC(=O)c1sc(NC(=O)CCCn2nc([N+](=O)[O-])cc2C)c(C(=O)OCC)c1C	2.57
C=CCNC(=O)/C(C#N)=C/c1ccccc1OCc1ccc(C(=O)OC)cc1	-32.9
CC(C)NC(=O)c1nn2c(C(F)(F)F)cc(-c3ccco3)nc2c1Cl	5.88
N=c1c2c3c(sc2ncn1N)CCCC3	2.04
O=[N+]([O-])/C=C1\NCCN1Cc1ccc(Cl)nc1 [24810910]	-0.135
O=C(NCc1ccccc1)c1cccc(S(=O)(=O)NCc2ccccc2)c1	-18.8
Cc1ccccc1OCc1nnc(SCC(=O)NC2CCCCC2)o1	4.41

Structure (SMILES)	hERG current change (%, negative = inhibition) at 10uM [%]
N#CC1=C(N)OC2=C(C(=O)CCC2)C1c1ccoc1 (stereo not drawn)	5.92
O=CN(Cc1ccco1)C1(C(=O)NC2CCCCC2)CCCCC1	-0.0323
CCOc1ccc(-c2nc(CSc3nncs3)cs2)cc1OC	-15.1
CCCNC(=O)Cn1c(=O)n(C)c2ccccc21	-4.33
CC1(C)C/C(=C(/C#N)C(N)=O)CCO1	16.1
Clc1ccc(C2Nc3ccccc3-n3cccc32)cc1 (stereo not drawn)	6.63
O=C(NCCCN1CCOCC1)c1ccc(Sc2cccc(Cl)c2)c([N+](=O)[O-])c1	-45.7
CC1CN(CC(=O)Nc2cc(S(=O)(=O)N3CCCC3)ccc2Cl)CC(C)O1 (stereo not drawn)	-1.68
CC(C)OC(=O)/C(C#N)=C\c1cccnc1	26.3
Cc1ccc(C(=O)Nc2ccc(NC(=O)c3ccc(C)o3)cc2)o1	-1.94
CC(CNS(=O)(=O)c1ccccc1)Sc1nncn1C (stereo not drawn)	19.4
COc1ccc(C(=O)N2CCN(c3ccc(C)cc3C)CC2)cc1OC	-68.5
CCOc1ccc(NC(=O)CN(C)C(=O)/C=C/c2ccco2)cc1OCC	-61.2
Cn1c(O)c(N=NC(=O)c2ccccc2O)c2ccccc21	13.6
CSCCNC(=O)c1ccc2nc(Cc3ccccc3F)oc2c1	16.4
O=C(CN1CCOCC1)Nc1nc(-c2ccc(Cl)cc2)cs1	-48.2
COc1ccc(/C=C/C(=O)c2cc3c(cc2N)OCO3)cc1	6.97
COc1ccccc1NC(=O)CN(Cc1ccco1)C(=O)c1ccc(=O)[nH]c1	8.98
CCOc1ccc(-n2c(O)c(/C=N/Nc3nc(C)cc(C)n3)c3ccccc3c2=O)cc1	24.3
C=C(C)COc1ccc(-c2[nH]ncc2Oc2ccccc2OC)c(O)c1	-55.2
O=C(N/N=C/c1ccccn1)c1ccco1	8.08
CNS(=O)(=O)c1cn(CC(=O)NCc2cccc(OC)c2)cc1S(=O)(=O)NC	16.8
CCOC(=O)C1=C(N)n2c(s/c(=C\c3ccco3)c2=O)=C(C(=O)OCC)C1c1ccco1 (stereo not drawn)	-5.19

Structure (SMILES)	hERG current change (%, negative = inhibition) at 10uM [%]
COc1ccc(CC2C(=O)NC(=O)NC2=O)c(OC)c1	7.01
COCCn1c(=NC(=O)c2cc(Cl)sc2Cl)sc2cc(S(N)(=O)=O)ccc21	17.4
CC(C(=O)N1CCOCC1)N1C(=O)c2ccccc2C1=O (stereo not drawn)	16.9
COC(=O)c1ccccc1NC(=O)c1sc(Cl)nc1C	0.146
O=C(NCc1ccc[n+](CCCCS(=O)(=O)[O-])c1)c1ccc(OC(F)F)cc1	14.9
CC(=O)Nc1ccc(NC(=O)C(C)n2c3ccccc3c3nc(=O)cc(C)n32)cc1 (stereo not drawn)	5.15
COc1ccc(COC(=O)N/N=C(\C)CC(=O)NCc2ccc(Cl)cc2)cc1	4.1
COC(=O)CC(NC(=O)c1ccco1)c1cccc2ccccc12 (stereo not drawn)	-23.4
Cc1nnc(NC(=O)c2ccccc2Oc2ccccc2)s1	4.92
O=C(COC(=O)C12CC3CC(CC(O)(C3)C1)C2)NC(=O)NCc1ccco1	1.49
CC(C)CCSc1nc(N)c(C#N)cc1C#N	-7.04
CC(=O)Nc1ccc(S(=O)(=O)NCc2cn3c(C)csc3n2)cc1	4.17
Oc1ccc(Br)cc1CNc1cccc2cccnc12	18.5
COc1cc(/C(C)=N\NC(=O)CSc2nc3ccccc3n2C)ccc1O	12.2
Cc1nc2ncnn2c(C)c1Cc1c(Cl)cccc1Cl	-8.13
Cc1cccc(NS(=O)(=O)c2ccc3[nH]c(=O)cc(C(=O)OC(C)C(=O)Nc4ccc([N+](=O)[O-])cc4)c3c2)c1 (stereo not drawn)	16.3
CCCNC(=O)CSc1nc2[nH]ncc2c(=O)[nH]1	11.6
Cc1ccc([C@@H]2[C@@H]3C(=O)N(C)C(=O)[C@@H]3[C@]3(C)C(=O)N(Cc4ccccn4)CC(=O)N23)o1	9.41
Cc1cccc(Cn2ccc(-c3ccc(Cl)cc3)c(C#N)c2=O)c1	5.04
O=C(COc1ccccc1Cl)NC(=S)Nc1ccccc1N1CCCC1	18.4
O=C(C1CCC1)N1CCN(c2cccc(C(F)(F)F)c2)CC1	-7.07
